B1: MS2 coat protein; the commonest letter at each place (parent)
chain: MASNFTQFVLVDNGGTGDVTVAPSNFANGVAEWISSNSRSQAYKVTCSVRQSSAQNRKYTIKVEVPKVATQTVGGVELPVAAWRSYLNMELTIPIFATNSDCELIVKAMQGLLKDGNPIPSAIAANSGIY

Variants of: B1
Experiment: apparent fitness score (VLP assembly selection enrichment vs plasmid library) (log10 ratio); higher = better expression / assembly into well-formed VLPs
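Also: counts from Illumina MiSeq reads, cDNA of packaged RNA versus plasmid DNA taken before selection, each replicate independent from library construction onward, expression induced with 0.1% arabinose.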

| Variant | apparent fitness score (log10) |
| --- | --- |
| MASNFTQFVLVDNGGTGDVTVAPSNFANGVAEWISSNSRSQAYKVTCSVRQSSAQNRKYTIKVEVPKVATQTVGQVELPVAAWRSYLNMELTIPIFATNSDCELIVKAMQGLLKDGNPIPSAIAANSGIY [G75Q] | -0.236 |
| MASNFTQFVLVDNGGTGDVTVAPSNFANGVAEWISSNSRSQAYKVTCSVRQSSAQNRKYTIKVEVPKVATQTVGRVELPVAAWRSYLNMELTIPIFATNSDCELIVKAMQGLLKDGNPIPSAIAANSGIY [G75R] | -0.422 |
| MASNFTQFVLVDNGGTGDVTVAPSNFANGVAEWISSNSRSQAYKVTCSVRQSSAQNRKYTIKVEVPKVATQTVGSVELPVAAWRSYLNMELTIPIFATNSDCELIVKAMQGLLKDGNPIPSAIAANSGIY [G75S] | -0.876 |
| MASNFTQFVLVDNGGTGDVTVAPSNFANGVAEWISSNSRSQAYKVTCSVRQSSAQNRKYTIKVEVPKVATQTVGTVELPVAAWRSYLNMELTIPIFATNSDCELIVKAMQGLLKDGNPIPSAIAANSGIY [G75T] | -0.93 |
| MASNFTQFVLVDNGGTGDVTVAPSNFANGVAEWISSNSRSQAYKVTCSVRQSSAQNRKYTIKVEVPKVATQTVGVVELPVAAWRSYLNMELTIPIFATNSDCELIVKAMQGLLKDGNPIPSAIAANSGIY [G75V] | -0.797 |
| MASNFTQFVLVDNGGTGDVTVAPSNFANGVAEWISSNSRSQAYKVTCSVRQSSAQNRKYTIKVEVPKVATQTVGWVELPVAAWRSYLNMELTIPIFATNSDCELIVKAMQGLLKDGNPIPSAIAANSGIY [G75W] | -0.824 |
| MASNFTQFVLVDNGGTGDVTVAPSNFANGVAEWISSNSRSQAYKVTCSVRQSSAQNRKYTIKVEVPKVATQTVGYVELPVAAWRSYLNMELTIPIFATNSDCELIVKAMQGLLKDGNPIPSAIAANSGIY [G75Y] | -1.04 |
| MASNFTQFVLVDNGGTGDVTVAPSNFANGVAEWISSNSRSQAYKVTCSVRQSSAQNRKYTIKVEVPKVATQTVGGAELPVAAWRSYLNMELTIPIFATNSDCELIVKAMQGLLKDGNPIPSAIAANSGIY [V76A] | -0.863 |
| MASNFTQFVLVDNGGTGDVTVAPSNFANGVAEWISSNSRSQAYKVTCSVRQSSAQNRKYTIKVEVPKVATQTVGGCELPVAAWRSYLNMELTIPIFATNSDCELIVKAMQGLLKDGNPIPSAIAANSGIY [V76C] | -1.29 |
| MASNFTQFVLVDNGGTGDVTVAPSNFANGVAEWISSNSRSQAYKVTCSVRQSSAQNRKYTIKVEVPKVATQTVGGDELPVAAWRSYLNMELTIPIFATNSDCELIVKAMQGLLKDGNPIPSAIAANSGIY [V76D] | -1.15 |
| MASNFTQFVLVDNGGTGDVTVAPSNFANGVAEWISSNSRSQAYKVTCSVRQSSAQNRKYTIKVEVPKVATQTVGGEELPVAAWRSYLNMELTIPIFATNSDCELIVKAMQGLLKDGNPIPSAIAANSGIY [V76E] | -1.56 |
| MASNFTQFVLVDNGGTGDVTVAPSNFANGVAEWISSNSRSQAYKVTCSVRQSSAQNRKYTIKVEVPKVATQTVGGFELPVAAWRSYLNMELTIPIFATNSDCELIVKAMQGLLKDGNPIPSAIAANSGIY [V76F] | -0.308 |
| MASNFTQFVLVDNGGTGDVTVAPSNFANGVAEWISSNSRSQAYKVTCSVRQSSAQNRKYTIKVEVPKVATQTVGGGELPVAAWRSYLNMELTIPIFATNSDCELIVKAMQGLLKDGNPIPSAIAANSGIY [V76G] | -0.756 |
| MASNFTQFVLVDNGGTGDVTVAPSNFANGVAEWISSNSRSQAYKVTCSVRQSSAQNRKYTIKVEVPKVATQTVGGHELPVAAWRSYLNMELTIPIFATNSDCELIVKAMQGLLKDGNPIPSAIAANSGIY [V76H] | -0.263 |
| MASNFTQFVLVDNGGTGDVTVAPSNFANGVAEWISSNSRSQAYKVTCSVRQSSAQNRKYTIKVEVPKVATQTVGGIELPVAAWRSYLNMELTIPIFATNSDCELIVKAMQGLLKDGNPIPSAIAANSGIY [V76I] | 0.162 |
| MASNFTQFVLVDNGGTGDVTVAPSNFANGVAEWISSNSRSQAYKVTCSVRQSSAQNRKYTIKVEVPKVATQTVGGKELPVAAWRSYLNMELTIPIFATNSDCELIVKAMQGLLKDGNPIPSAIAANSGIY [V76K] | -0.831 |
| MASNFTQFVLVDNGGTGDVTVAPSNFANGVAEWISSNSRSQAYKVTCSVRQSSAQNRKYTIKVEVPKVATQTVGGLELPVAAWRSYLNMELTIPIFATNSDCELIVKAMQGLLKDGNPIPSAIAANSGIY [V76L] | 0.0989 |
| MASNFTQFVLVDNGGTGDVTVAPSNFANGVAEWISSNSRSQAYKVTCSVRQSSAQNRKYTIKVEVPKVATQTVGGMELPVAAWRSYLNMELTIPIFATNSDCELIVKAMQGLLKDGNPIPSAIAANSGIY [V76M] | -0.558 |
| MASNFTQFVLVDNGGTGDVTVAPSNFANGVAEWISSNSRSQAYKVTCSVRQSSAQNRKYTIKVEVPKVATQTVGGNELPVAAWRSYLNMELTIPIFATNSDCELIVKAMQGLLKDGNPIPSAIAANSGIY [V76N] | -1.41 |
| MASNFTQFVLVDNGGTGDVTVAPSNFANGVAEWISSNSRSQAYKVTCSVRQSSAQNRKYTIKVEVPKVATQTVGGPELPVAAWRSYLNMELTIPIFATNSDCELIVKAMQGLLKDGNPIPSAIAANSGIY [V76P] | -0.0518 |
| MASNFTQFVLVDNGGTGDVTVAPSNFANGVAEWISSNSRSQAYKVTCSVRQSSAQNRKYTIKVEVPKVATQTVGGQELPVAAWRSYLNMELTIPIFATNSDCELIVKAMQGLLKDGNPIPSAIAANSGIY [V76Q] | < -4 |
| MASNFTQFVLVDNGGTGDVTVAPSNFANGVAEWISSNSRSQAYKVTCSVRQSSAQNRKYTIKVEVPKVATQTVGGRELPVAAWRSYLNMELTIPIFATNSDCELIVKAMQGLLKDGNPIPSAIAANSGIY [V76R] | -0.84 |
